These results are taken from publication PMC12820563.

The other results are listed elsewhere or left out. The list includes weakly bound sequences.

For the assay, the target named is T1, MBP-FoxP3dN (UniProt Q99JB6).
T1 sequence: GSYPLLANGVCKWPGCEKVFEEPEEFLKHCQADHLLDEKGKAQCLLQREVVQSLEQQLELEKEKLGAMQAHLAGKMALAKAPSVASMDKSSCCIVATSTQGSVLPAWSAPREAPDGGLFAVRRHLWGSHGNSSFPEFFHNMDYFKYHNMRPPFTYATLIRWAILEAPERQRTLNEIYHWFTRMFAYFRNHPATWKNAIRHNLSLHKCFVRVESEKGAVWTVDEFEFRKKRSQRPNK
As to the kind of experiment: PD-seq (MBP pull-down with sequencing). Particulars: 20 mM Tris-HCl pH 7.5, 100 mM NaCl, 1.5 mM MgCl2, 0.4 uM protein, 0.1 uM dsDNA library, 30 min, room temperature, amylose pull-down; high values mean tight binding; double strand, one strand shown.
“GATGATTGTTCTCCCAGCTGATGAATTTCTGGCCTCGAGTAAACAAATTTTCCTAATCTTTCTGTTCAAGCGCCATCTAC”: the binding signal (RPM ratio (pull-down/input)) was determined as 0.3.
“GATGATTGTTCTCCCAGCTGATGAATTGAGTAAGTCGAGTAAACAAATTTTCCTAATCTTTCTGTTCAAGCGCCATCTAC”: the binding signal (RPM ratio (pull-down/input)) stood at 0.372.
The value for “GATGATTGTTCTCCCAGCTGATGAATTCCCCGGATCGAGTAAACAAATTTTCCTAATCTTTCTGTTCAAGCGCCATCTAC” was 0.142; that for “GATGATTGTTCTCCCAGCTGATGAATTTGTACCATCGAGTAAACAAATTTTCCTAATCTTTCTGTTCAAGCGCCATCTAC” was 2.37; that for “GATGATTGTTCTCCCAGCTGATGAATTGCTTTACTCGAGTAAACAAATTTTCCTAATCTTTCTGTTCAAGCGCCATCTAC” was 1.22.
As to “GATGATTGTTCTCCCAGCTGATGAATTTTTTCTGTCGAGTAAACAAATTTTCCTAATCTTTCTGTTCAAGCGCCATCTAC”, the binding signal (RPM ratio (pull-down/input)) was found to be 0.199.
As for “GATGATTGTTCTCCCAGCTGATGAATTAGAGGTCTCGAGTAAACAAATTTTCCTAATCTTTCTGTTCAAGCGCCATCTAC”, the binding signal (RPM ratio (pull-down/input)) was determined as 0.486.
Regarding “GATGATTGTTCTCCCAGCTGATGAATTCGGGGGCTCGAGTAAACAAATTTTCCTAATCTTTCTGTTCAAGCGCCATCTAC”, the binding signal (RPM ratio (pull-down/input)) is 0.39.
The value for “GATGATTGTTCTCCCAGCTGATGAATTACCGACGTCGAGTAAACAAATTTTCCTAATCTTTCTGTTCAAGCGCCATCTAC” was 0.316.
For “GATGATTGTTCTCCCAGCTGATGAATTGGGGTATTCGAGTAAACAAATTTTCCTAATCTTTCTGTTCAAGCGCCATCTAC” the value was 0.979; for “GATGATTGTTCTCCCAGCTGATGAATTACCTACCTCGAGTAAACAAATTTTCCTAATCTTTCTGTTCAAGCGCCATCTAC”, 0.293.
The value for “GATGATTGTTCTCCCAGCTGATGAATTAGTGGCGTCGAGTAAACAAATTTTCCTAATCTTTCTGTTCAAGCGCCATCTAC” was 1.48; that for “GATGATTGTTCTCCCAGCTGATGAATTTGCCCACTCGAGTAAACAAATTTTCCTAATCTTTCTGTTCAAGCGCCATCTAC” was 0.555.
As for “GATGATTGTTCTCCCAGCTGATGAATTTACATAGTCGAGTAAACAAATTTTCCTAATCTTTCTGTTCAAGCGCCATCTAC”, the binding signal (RPM ratio (pull-down/input)) came to 0.469.
The value for “GATGATTGTTCTCCCAGCTGATGAATTCAGCAACTCGAGTAAACAAATTTTCCTAATCTTTCTGTTCAAGCGCCATCTAC” was 4.78; that for “GATGATTGTTCTCCCAGCTGATGAATTCCTGGGATCGAGTAAACAAATTTTCCTAATCTTTCTGTTCAAGCGCCATCTAC” was 0.206.
Turning to “GATGATTGTTCTCCCAGCTGATGAATTCAGTTCATCGAGTAAACAAATTTTCCTAATCTTTCTGTTCAAGCGCCATCTAC”, the binding signal (RPM ratio (pull-down/input)) amounted to 0.641.
The value for “GATGATTGTTCTCCCAGCTGATGAATTGACTTGATCGAGTAAACAAATTTTCCTAATCTTTCTGTTCAAGCGCCATCTAC” was 0.281; that for “GATGATTGTTCTCCCAGCTGATGAATTAGCGAATTCGAGTAAACAAATTTTCCTAATCTTTCTGTTCAAGCGCCATCTAC” was 1.06; that for “GATGATTGTTCTCCCAGCTGATGAATTGCTTGTTTCGAGTAAACAAATTTTCCTAATCTTTCTGTTCAAGCGCCATCTAC” was 2.41.
For “GATGATTGTTCTCCCAGCTGATGAATTGGAGGTGTCGAGTAAACAAATTTTCCTAATCTTTCTGTTCAAGCGCCATCTAC” the value was 0.523.
Regarding “GATGATTGTTCTCCCAGCTGATGAATTTTTATTCTCGAGTAAACAAATTTTCCTAATCTTTCTGTTCAAGCGCCATCTAC”, the binding signal (RPM ratio (pull-down/input)) is 0.391.
For “GATGATTGTTCTCCCAGCTGATGAATTAGCATCTTCGAGTAAACAAATTTTCCTAATCTTTCTGTTCAAGCGCCATCTAC” the value was 4.84; for “GATGATTGTTCTCCCAGCTGATGAATTTAACTGCTCGAGTAAACAAATTTTCCTAATCTTTCTGTTCAAGCGCCATCTAC”, 0.395.
The value for “GATGATTGTTCTCCCAGCTGATGAATTTTGCCCCTCGAGTAAACAAATTTTCCTAATCTTTCTGTTCAAGCGCCATCTAC” was 2.15; that for “GATGATTGTTCTCCCAGCTGATGAATTCGCGCCATCGAGTAAACAAATTTTCCTAATCTTTCTGTTCAAGCGCCATCTAC” was 2.63.
For “GATGATTGTTCTCCCAGCTGATGAATTAGGCCGGTCGAGTAAACAAATTTTCCTAATCTTTCTGTTCAAGCGCCATCTAC”, the binding signal (RPM ratio (pull-down/input)) came out at 0.493.
The value for “GATGATTGTTCTCCCAGCTGATGAATTATACAGGTCGAGTAAACAAATTTTCCTAATCTTTCTGTTCAAGCGCCATCTAC” was 0.455.
The value for “GATGATTGTTCTCCCAGCTGATGAATTACGCGCTTCGAGTAAACAAATTTTCCTAATCTTTCTGTTCAAGCGCCATCTAC” was 0.98; that for “GATGATTGTTCTCCCAGCTGATGAATTGGTCTTCTCGAGTAAACAAATTTTCCTAATCTTTCTGTTCAAGCGCCATCTAC” was 0.432; that for “GATGATTGTTCTCCCAGCTGATGAATTAAAGAAGTCGAGTAAACAAATTTTCCTAATCTTTCTGTTCAAGCGCCATCTAC” was 0.172.
The value for “GATGATTGTTCTCCCAGCTGATGAATTACTACATTCGAGTAAACAAATTTTCCTAATCTTTCTGTTCAAGCGCCATCTAC” was 0.586.
